Drawing on PubChem BioAssay AID360 (National Center for Advancing Translational Sciences (NCATS), 2006), this text covers Potency for 59 compounds.

Hit rate of the full screen: of about 48,000 compounds, about 550 (1.1%) were called active. Inconclusive results (about 4%) are left out. No stated cut-off is given here; in the data, active means potency below about 15 µM; inconclusive means mostly about 16 µM to 33 µM; inactive means weaker than that. Some of the results follow. Bounds are passed on as bounds.
Potency means the concentration at half of the fitted maximal effect.

UniProt P04062, sequence (P04062 whole entry, looked up): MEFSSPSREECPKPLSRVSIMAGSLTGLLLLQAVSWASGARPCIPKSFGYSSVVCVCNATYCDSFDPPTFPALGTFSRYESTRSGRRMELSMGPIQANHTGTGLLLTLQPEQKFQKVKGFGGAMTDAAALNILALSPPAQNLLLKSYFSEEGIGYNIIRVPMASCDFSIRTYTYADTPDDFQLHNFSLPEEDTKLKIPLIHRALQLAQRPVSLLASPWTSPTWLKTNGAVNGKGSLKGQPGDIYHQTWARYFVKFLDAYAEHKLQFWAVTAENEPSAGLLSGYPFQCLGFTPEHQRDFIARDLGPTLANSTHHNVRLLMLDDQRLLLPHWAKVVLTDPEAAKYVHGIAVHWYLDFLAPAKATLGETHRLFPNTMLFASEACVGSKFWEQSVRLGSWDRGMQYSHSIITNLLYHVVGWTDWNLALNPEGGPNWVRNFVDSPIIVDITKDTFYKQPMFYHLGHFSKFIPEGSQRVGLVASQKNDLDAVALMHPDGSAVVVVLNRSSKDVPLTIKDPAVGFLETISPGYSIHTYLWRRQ

In this assay the target is Lysosomal acid glucosylceramidase (Homo sapiens) (UniProt P04062). In words: Glucocerebrosidase.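 Further: the screen sought inhibitors.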 The note with it: purified enzyme, resorufin glucoside fluorescence (screen aimed at inhibitors), 20 min; series mostly up to 77 µM. The gist of the method:
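Compounds titrated against 0.2 nM normal enzyme, 30 uM resorufin beta-D-glucopyranoside substrate, citrate/phosphate buffer with taurocholate and tween-20, pH 5.9. Reaction ran 20 min at room temperature; fluorescence (Ex 548/Em 600) gave AC50.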
Turning to `N#CC(C(=O)NCCc1ccccc1)c1nc2ccccc2nc1N1CCCCC1` (centres undefined), the Potency is inactive: > 76.9 µM.
In the case of `Cc1ccc(C2/C(=C(\O)c3c(C)nc4ccccn34)C(=O)C(=O)N2CCCN(C)C)o1` (centres undefined), the Potency is inactive: > 76.9 µM.
As for `CCOC(=O)N1CCC(NC(=O)c2ccc3c(c2)N(C)CCS3)CC1`, the figure is inactive: > 76.9 µM; as for `O=C(C1CC(c2ccc(F)cc2)=NO1)N1CCCCC1` (centres undefined), inactive: > 76.9 µM; as for `CNS(=O)(=O)c1cccc(C(=O)OCc2cc(Cl)cc3c2OCOC3)c1`, inactive: > 76.9 µM.
The result for `COc1ccc(-n2nc3cc(C)c(NC(=O)C(C)C)cc3n2)cc1` reads inactive: > 76.9 µM; that for `CCc1nc(SC)[nH]c(=O)c1C`, inactive: > 76.9 µM.
As for `c1ccc(COc2ccc(OCCn3cncn3)cc2)cc1`, the figure is inactive: > 76.9 µM; as for `CC1CCN(C(=O)c2ccc3c(c2)OCCO3)CC1`, inactive: > 76.9 µM; as for `CCn1nc(CC(=O)Nc2nnc(CC(=O)N3CCCC3)s2)c2ccccc2c1=O`, inactive: > 76.9 µM.
For the compound `O=C(C1CCN(S(=O)(=O)Cc2ccccc2)CC1)N1CCN(c2ncccn2)CC1`, the Potency is inactive: > 76.9 µM.
Turning to `CCOc1ccc2[nH]c(=O)c(CN(CCO)C(=O)c3ccc(F)cc3)cc2c1`, the Potency was inactive: > 76.9 µM.
The result for `Cn1c(=O)n(CC(=O)N2CCN(c3nnc(-c4ccccc4)c4ccccc34)CC2)c2ccccc21` reads inactive: > 76.9 µM.
The result for `Cc1ccc(-c2nnc3ccc(SCC(=O)NCc4ccco4)nn23)cc1` reads inactive: > 76.9 µM; that for `COc1cccc(-n2nnc3c(=O)n(Cc4cccc(F)c4)cnc32)c1`, inactive: > 76.9 µM.
As to `CC1(C)CC(=O)C2=C(C1)NCN(Cc1ccc3c(c1)OCO3)C2`, the Potency is inactive: > 76.9 µM.
Regarding `Cc1c(C)c2cc(Cl)c(OCc3nn[nH]n3)cc2oc1=O`, the Potency was inactive: > 76.9 µM.
Consider `CCCc1cc(=O)oc2cc(OCC(=O)N(C)C)c(Cl)cc12`, for which the Potency was inactive: > 76.9 µM.
Take `CC1CCCCC1NC(=O)C1Cc2ccccc2CN1S(C)(=O)=O` (centres undefined): the Potency was inactive: > 76.9 µM.
As for `O=C(NCc1ccccn1)c1ccc(COc2ccc(Cl)cc2)o1`, the figure is inactive: > 76.9 µM; as for `CCOP(=O)(c1ccc(N(C)C)cc1)C(O)c1ccccc1OC` (centres undefined), inactive: > 76.9 µM; as for `CN1CCN(C(=O)c2cnn3c(C(F)(F)F)cc(-c4ccc5c(c4)OCO5)nc23)CC1`, inactive: > 76.9 µM.
The result for `CN(C)CCCNC(=O)Cc1ccc(Br)cc1` reads inactive: > 76.9 µM; that for `COc1ccc(OC)c(C2=NOC(C(=O)NCCN3CCOCC3)C2)c1` (centres undefined), inactive: > 76.9 µM.
In the case of `O=C(C1CC1)N1CCc2cc(Br)cc(S(=O)(=O)NCC3COc4ccccc4O3)c21` (centres undefined), the Potency is inactive: > 76.9 µM.
In the case of `O=C(O)c1cccc(-n2nnnc2SCc2ccccn2)c1`, the Potency is inactive: > 76.9 µM.
For the compound `Cc1cccc(N(CC(N)=O)S(C)(=O)=O)c1C`, the Potency was inactive: > 76.9 µM.
Consider `CCc1nnc(SCc2ccc(CSc3nnc(CC)n3N)cc2)n1N`, for which the Potency is inactive: > 76.9 µM.
As for `COc1ccc(Cl)c(Cn2c(NCc3ccco3)nc3c2c(=O)n(C)c(=O)n3C)c1`, the figure is inactive: > 76.9 µM; as for `Cc1cc(Br)ccc1SCC(=O)OCC(=O)N1CCN(C(=O)c2ccco2)CC1`, inactive: > 76.9 µM; as for `O=C(CN(CC1CCCO1)C(=O)CCC(=O)Nc1nccs1)NCC1CCCO1` (centres undefined), inactive: > 76.9 µM.
For `NC(=O)c1cc(-c2ccccc2)sc1NC(=O)Cc1ccc(S(=O)(=O)N2CCOCC2)s1`, the Potency was inactive: > 76.9 µM.
Take `COC(=O)CSc1nc2sc(C)c(C)c2c(=O)n1C`: the Potency is inactive: > 76.9 µM.
For `CC(=O)N1SC(N)=NC1c1ccccc1` (centres undefined), the Potency is inactive: > 76.9 µM.
As for `Cc1cc(C)nc(Sc2ccc3nnnn3n2)n1`, the figure is inactive: > 76.9 µM; as for `O=C(c1ccc(N2CCCC2=O)cc1)N1CCOCC1`, inactive: > 76.9 µM.
The result for `CC1CCCCC1NC(=O)CSc1nc2ccccc2c(=O)n1Cc1ccco1` (centres undefined) reads inactive: > 76.9 µM; that for `COc1ccc(N2C(=O)C3CCCN3C2c2ccccc2)cc1Cl` (centres undefined), inactive: > 76.9 µM; that for `CCOC(=O)c1cnc(-n2nc(C)cc2C)nc1-n1nc(C)cc1C`, inactive: > 76.9 µM.
As for `CCOCCc1nnc(NC(=O)COC)s1`, the figure is inactive: > 76.9 µM; as for `CC1CCCN(CCCNC(=O)CCn2nc(-c3ccccc3)ccc2=O)C1` (centres undefined), inactive: > 76.9 µM; as for `Cc1cc(NC(=O)CCC(=O)N(C2CC2)C2(C(=O)NC3CCCC3)CCC(C)CC2)no1` (centres undefined), inactive: > 76.9 µM.
With `COc1ccc2oc(C(=O)OCC(=O)c3ccc4c(c3)OCCO4)c(C)c2c1`, the Potency is inactive: > 76.9 µM.
As for `CC(C)OC(=O)NCCOC(=O)Nc1cccc(Cl)c1`, the figure is inactive: > 76.9 µM; as for `O=C(c1cc2nc(C3CC3)cc(C(F)F)n2n1)N1CCOCC1`, inactive: > 76.9 µM.
Consider `COc1ccc(-n2c(=O)cc(N3CCOCC3)[nH]c2=O)cc1`, for which the Potency is inactive: > 76.9 µM.
For the compound `CC1(C)CC(=O)C2=C(C1)Oc1ncn(CCCO)c(=N)c1C2c1ccccc1` (centres undefined), the Potency result was “inactive”.
As for `CCCn1c(SCC(=O)N2CCN(c3ccccc3)CC2)nc2ccccc2c1=O`, the figure is inactive: > 76.9 µM.
On to `CCc1nc(-c2ccccc2O)n(-c2ccccc2)n1`, for which the Potency was inactive: > 76.9 µM.
As for `CCOC(=O)Nc1ccc(S(=O)(=O)NCc2ccccc2)cc1`, the Potency was inactive: > 76.9 µM.
As for `Cc1ccc(S(=O)(=O)NCC(=O)NC2CCCC2)cc1`, the figure is inactive: > 76.9 µM.
The result for `CCC(=O)N1CCc2cc(Br)cc(S(=O)(=O)CC(=O)OC)c21` reads inactive: > 76.9 µM; that for `COC(=O)c1c(C)[nH]c(C)c1-c1ccccc1Cl`, inactive: > 76.9 µM.
The result for `Fc1ccc(OCc2nn3cnnc3s2)cc1` reads inactive: > 76.9 µM; that for `O=C(CCCCn1c(=O)c2ccccc2n(CC(=O)NC2CCCC2)c1=O)NCc1ccco1`, inactive: > 76.9 µM; that for `O=C1CCCC/C1=C\Nc1ccc(O)cc1`, inactive: > 76.9 µM.
On to `CCC(=O)Nc1c(C)nn(C(=O)CC)c1C`, for which the Potency was inactive: > 76.9 µM.
With `c1nc2nc3c(c(N4CCOCC4)n2n1)CCCC3`, the Potency was inactive: > 76.9 µM.
The result for `O=C(Nc1ccccc1)N1CCC(c2ccccc2)C1` (centres undefined) reads inactive: > 76.9 µM.
